Measured values taken from the supplement of paper PMC11417369.
± gives the standard deviation of the averaged measurements. This is one part of the list.

System: PfAP2-I AP2 domain 3 (GST-tagged)
Experiment: gcPBM binding intensity (ln(normalized median fluorescence intensity)); higher = stronger DNA binding
Summary of the method: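 In this array assay, P. falciparum DNA-binding domains with a GST tag, expressed in E. coli, were applied for 1 h to primer-extended double-stranded 36-bp intergenic genomic probes and negative controls on an Agilent 4 × 180k array. Bound protein was visualised with Alexa488 anti-GST antibody at 488 nm. Binding intensity is the highest Masliner-normalised natural-log median intensity across replicate spots of either probe orientation.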

In order of falling “gcPBM binding intensity (ln)” value:
1. ATATAATATTAGTGCACACACAAAAATGTACTAAAC [CACACA_site632]  11.3 ± 0.54
2. TAATTATAAATTATAGTGCATAAAATTGTAGCATAA  10.5 ± 0.38
3. TTTATGAAACAGTGCACACATAAAAATATATACATA [CACACA_site2992]  10.4 ± 0.39
4. AGGTCTGTTTTATATTGTACATAAAAAGTGCACATG [XGTACX_site4529]  10.4 ± 0.32
5. AAATAAAGCACACCGACACACACATATATATATATA [CACACA_site8256]  10.2 ± 0.73
6. ATTGTATGCACGTCTGCACACTTTTTTTTTTTTTTT [CACACA_site2082]  10.1 ± 0.11
7. TGTCCCCCTTTCTATGCACACTTTAAATTATTCAAA [CACACA_site4200]  9.84 ± 0.35
8. ATATATATTATATGCACACTTATATTTCATTAGATT [CACACA_site2599]  9.8 ± 0.085
9. GTATTATATATAAAAGTGCATATTTTTTTCCCTTAC  9.76 ± 0.48
10. TTTTTTATTATTATGTGTACGAATATGTGCATATAA [XGTACX_site1364]  9.38 ± 0.6
11. TATTATTTATTATATGCACACATCGAACTATTATTT [CACACA_site2544]  9.36 ± 0.085
12. ATTGTATCTGTATATGCACACAATATCTGTACTTCT [CACACA_site5445]  9.34 ± 0.18
13. ATAAAGAAACATATATGTACTTATATATATATATAT [XGTACX_site5625]  9.27 ± 0.42
14. CGAAATCATATGTACACACACATATATATATATATA [CACACA_site2151]  9.21 ± 0.3
15. TATTAAATTATATAGACACACATTATATATATATAT [CACACA_site4345]  9.15 ± 0.17
16. TATATATATATATTCACACATAAGATGAATAAAGTG [CACACA_site4225]  9.14 ± 0.27
17. TACACCCACCAACACACACACACACCCAAAAAAAAA [CACACA_site498]  8.5 ± 0.37
18. GTAAGATTTCTTGTTGCATGCGGTAAAAAGTAAAAT [TGCATGCA_site469]  8.41 ± 0.61
19. AACTTTATACTTTTTTGTACTTAACCCTTACATTTT [XGTACX_site5798]  8.39 ± 0.51
20. TTATATATAAATGAAAGTACAAAACAGGAAAGAATA [XGTACX_site1076]  8.32 ± 0.55
21. AAAAAAAAAATACATACACACACACCCACCCATATA [CACACA_site9187]  8.29 ± 0.84
22. GTTACACAAACAAACACACACACACGCACGCACAAA [CACACA_site7191]  8.24 ± 0.41
23. AATACACGCAAACACACACACACACCCACATATATA [CACACA_site638]  8.16 ± 0.42
24. GGTTACATTTTATTTTGTACATAAAAATTTTTATTT [XGTACX_site218]  8.15 ± 0.53
25. AACATACATAAACACACACACACACCCACACCCACA [CACACA_site8058]  8.13 ± 0.21
26. AATATAGATACATATACACACACACCCATACATATA [CACACA_site9137]  8.12 ± 0.42
27. TTCTATATTATATATGCATGTGTTATTCTTATTTTC [TGCATGCA_site92]  8.09 ± 0.64
28. AAATAATTAAAAAAAAGTACACATGTGACTACATAT [XGTACX_site8767]  8.09 ± 0.28
29. TTTTTTCTCTATATATGTACATATAAAAAATATATC [XGTACX_site6382]  8.04 ± 0.45
30. ATATAGTTCGTTTATACACACATGATAAGATATTTA [CACACA_site1947]  8.03 ± 0.54
31. TTCTTTATTTTTTCTACACACATTAGATATTCAAAG [CACACA_site7624]  8.02 ± 0.53
32. TCAATATACCAAAAATGTACAAAAAATAAACAATAT [XGTACX_site8251]  8.02 ± 0.73
33. TATATATATGTATACACACATACAAATATGTAAAAA [CACACA_site3720]  8.02 ± 0.82
34. ATAATTCTAAATAAATGTACACACAAAAATAAATGT [XGTACX_site3547]  7.99 ± 0.55
35. AAGAAAAACATTACGTGTACCAAAAGGCCTGTCAAC [XGTACX_site267]  7.99 ± 0.83
36. TTTATTTTACAAAAAAGTACAAGAAGAAATATCAAT [XGTACX_site7812]  7.94 ± 0.54
37. TTTTCTTGATTTTGTAGTACATTTTTACGATATTTT [XGTACX_site63]  7.94 ± 0.55
38. GAACATTTCACATGGTGTACTCTCTTTTTCAAATAA [XGTACX_site1632]  7.88 ± 0.59
39. CACATACATATATACACACACAAAATAATAAAATAA [CACACA_site2308]  7.88 ± 0.17
40. ATATATAATATATGTGGTACGCAAAATATTATATTA [XGTACX_site4969]  7.87 ± 0.39
41. TTTATATATTTATTCACACATATAATATTCCGTCGT [CACACA_site6120]  7.86 ± 0.54
42. CTCATAATTTCTGAACGTACGTATTTCTCATTTTTA [XGTACX_site7296]  7.86 ± 0.47
43. ATTTTTTTTTAATGCAAAAGGTGATGATCGGTCATA [CACACA_negctrl_site959]  7.86 ± 0.55
44. TTCTATAAGTATAAATGTACAAAAAAAACATCATTC [XGTACX_site5450]  7.84 ± 0.58
45. AAAATGGGTTAGCACATACACACCAATATATTATAT [CACACA_site3082]  7.8 ± 0.6
46. AAATACCTGATATATACACACTATGTTTTTCTTTTT [CACACA_site6680]  7.77 ± 0.81
47. TTATAATTTTTTTTTGCATGTGGGTTTTTTTTTGTT [TGCATGCA_site968]  7.75 ± 0.47
48. TCATCATATTATATATGTACATATATAATAATTTAT [XGTACX_site1625]  7.75 ± 0.36
49. TTATTGAAAAACATAATATCTAAGAGGGTAATATAT [GTGCAC_negctrl_site599]  7.74 ± 0.64
50. AAACATATAAATCACGGTACACATTATTGAAAGTGT [XGTACX_site2966]  7.73 ± 0.71
51. ATGTAAATTATTATTCTATTGTTATATACACAATAT [XGTACX_negctrl_site332]  7.73 ± 0.65
52. ATATTTAGAATGTTCCTACACACCAAATTTAAGTGG [CACACA_site2346]  7.72 ± 0.62
53. TTTCAATACTGAAACTGTACTTGTTTTACTTCTATT [XGTACX_site5924]  7.71 ± 0.44
54. CAAAATTAATAAGTCACACACACATCTATAATATAT [CACACA_site6519]  7.7 ± 0.59
55. GACATTTGTGAGCTTGAGCCGTCAAACCACTAAATA [CACACA_negctrl_site552]  7.7 ± 0.61
56. GTAACAAATAAAATAACACACATGTCGAAATGTATG [CACACA_site2971]  7.69 ± 0.38
57. TGTTATTCGACATATACACACAAATAACAATTTAAA [CACACA_site5076]  7.68 ± 0.49
58. TAATTTCTTATGTATTGTACAAATAATATATTATTT [XGTACX_site3066]  7.68 ± 0.42
59. CATATTATTTAAACATGTACTCACATATAAATATAA [XGTACX_site6096]  7.67 ± 0.38
60. TATTAAAAGTAAAAAACACACATGGATAAATACATA [CACACA_site6048]  7.67 ± 0.85
61. TAACGCATGAATATAATATATATATATATAAAAATA [GTGCAC_negctrl_site218]  7.67 ± 0.43
62. AAAAAGAAATATTTATGTACATAATAATAATATTTT [XGTACX_site4693]  7.67 ± 0.47
63. TTTTTTACATCCATAAAACTTTTTCTCTTTTAAAAT [CACACA_negctrl_site1745]  7.67 ± 0.7
64. TATAGATGTATGTACATACACACATATATAAATAAA [CACACA_site1789]  7.65 ± 0.52
65. TGTTAATTTATATTATGTACTTATAATTATCGTTTG [XGTACX_site1032]  7.65 ± 0.52
66. TAAAAAAAAAAAATGTGTACATATTATATATATCTT [XGTACX_site2615]  7.64 ± 0.2
67. CATATTCCAAGAATGTGTACATAATTTTTTTTTTTT [XGTACX_site4310]  7.63 ± 0.21
68. TGTATTAATATGGTAATACACACTAATATACTTTTG [CACACA_site1610]  7.62 ± 0.37
69. TGTAGAATTTCCTGAACATGCAAATAATTTTCCTTA [TGCATGCA_site881]  7.61 ± 0.54
70. AAATCACTTTTTAAGTGTACTTGGTCTTTCTCATTT [XGTACX_site7221]  7.59 ± 0.69
71. AATGATATATTATAAACACACAAAGATGGATATATA [CACACA_site7349]  7.58 ± 0.67
72. AGAGAGAAAGGTATAACATGCGATAAATTTTAGAAG [TGCATGCA_site37]  7.57 ± 0.61
73. ATTAATCCAAATGAATGTACTTAATAATGTAATTAT [XGTACX_site8946]  7.55 ± 0.23
74. ATGAGTATACTAAGAACACACAAGTTACTTGGTGTT [CACACA_site4981]  7.54 ± 0.79
75. TAGATAAATGGGTATACACACATATACATAAATATA [CACACA_site375]  7.54 ± 0.41
76. AAAATATGATATGAAAAATTTGTTATATATACATAA [CACACA_negctrl_site1529]  7.53 ± 0.47
77. AAAAAATTGAAGGAGTGTACATTTATACTTTATTTT [XGTACX_site8623]  7.53 ± 0.64
78. ACCATAACATGAATTACAGGAATTGAAAATGTTCCA [CACACA_negctrl_site649]  7.51 ± 0.51
79. ATTCAAAATAATCACAGTACACATGAGATTATCTTT [XGTACX_site2197]  7.51 ± 0.45
80. GTTAATTGAAGATTCACACATAAATATATATATAAT [CACACA_site5482]  7.5 ± 0.68
81. CAATTAAATATATGAACACACATGTGAACTTTCTAT [CACACA_site3977]  7.5 ± 0.61
82. TATAACAAGTAATGTTGTACATTATATTATGTAATA [XGTACX_site2769]  7.46 ± 0.36
83. AACATAATAAAAATGGATATAATTCAAAGTTTGTAA [TGCATGCA_negctrl_site529]  7.46 ± 0.67
84. TTTTTAAAAATAACAGAAAAGAATTACAGATTTTTT [XGTACX_negctrl_site472]  7.41 ± 0.71
85. ATAATTATATAAATATATATAATATATATATGAAAA [XGTACX_negctrl_site357]  7.38 ± 0.42
86. TATTCGAAAGAATAGGCATGCAAACATATCTTATTA [TGCATGCA_site147]  7.31 ± 0.69
87. AAAATTATATTTTATAGAAATTTAAATAAATATATA [GTGCAC_negctrl_site199]  7.21 ± 0.31
88. TTTATATTATAATATAATAATGATCTTAATTTTTTT [XGTACX_negctrl_site100]  7.18 ± 0.38
